In all, about 52,000 compounds went through this assay and about 4,300 (8.3%) were called active. No stated cut-off is given here; in the data, active means survival mostly below about 52% (no sharp cut-off); inactive means mostly above about 56%. This is one part of the list.
tested on: DeltatarO mutant; experiment: S. aureus survival, RN4220 and DeltatarO strains – OD600, teichoic acid synthesis inhibitors, primary screen (AID 463173); conditions: S. aureus RN4220 wild type/DeltatarO growth, OD600, 18 h, stronger effect = lower value, screened at 18.75 µg/mL (by protocol)

| SMILES | survival |
| --- | --- |
| COc1cc(NC(=O)c2ncn(-c3ccccc3)n2)cc(OC)c1 | inactive: 63% |
| Cn1ncc(C(=O)N2CCN(c3ccccc3F)CC2)c1C1CCN(C(=O)OC(C)(C)C)CC1 | inactive: 71% |
| CC(=O)c1ccc(NC(=O)CSc2nccn2Cc2ccc3c(c2)OCO3)cc1 | inactive: 102% |
| Cc1cc(SCC(=O)NCc2ccc(F)cc2)nc(=O)[nH]1 | inactive: 81% |
| CCOC(=O)c1cccc(NC(=O)C2CCCN(S(=O)(=O)c3cc(Br)cc4c3N(C(=O)CC)CC4)C2)c1 (stereo unspecified) | inactive: 83% |
| COc1ccc(CN(C(=O)Cc2coc3ccc(C)cc23)C2CCS(=O)(=O)C2)cc1 (stereo unspecified) | inactive: 67% |
| CCc1cccc(NC(=O)CCN2C(=O)c3ccccc3Sc3ncccc32)c1 | inactive: 67% |
| Cc1cc(=O)n2nc(N(C)CC(=O)NCc3ccc(Cl)cc3)sc2n1 | inactive: 92% |
| CCOc1ccc(NC(=O)Cn2c(=O)oc3cc(S(=O)(=O)N4CCC(C)CC4)ccc32)cc1 | inactive: 113% |
| O=C(NCC1CCN(Cc2ccc(F)cc2)CC1)c1cc2ccc3cccnc3c2[nH]1 | inactive: 80% |
| CCOc1ccc(NC(=O)CN2CCN(c3ccc(Cl)cc3)CC2)cc1 | inactive: 78% |
| O=C(c1cc(F)cc(F)c1)N1CCC(c2nc(-c3ccc(S(=O)(=O)N4CCCC4)cc3)no2)CC1 | inactive: 77% |
| CC1(C)C/C(=N\O)c2cc3c(nc2C1)CCCC3 | inactive: 72% |
| COc1ccc(OC)c(CCNC(=O)c2cc3c(=O)n(C)c4ccccc4c3n2C)c1 | active: 43% |
| COC(=O)c1ccc([C@@H]2Nc3c(C)cc(C)cc3[C@@H]3C=CC[C@@H]32)cc1 | active: 51% |
| CCc1nn(CC(=O)N2CCN(c3cccc(C)c3C)CC2)c(=O)c2cc3sccc3n12 | inactive: 134% |
| Cc1ccc(O)c(-c2n[nH]c3c2C(c2ccccc2F)N(Cc2ccco2)C3=O)c1 (stereo unspecified) | active: 8% |
| CCC(=O)N1CCc2cc(S(=O)(=O)NC(CC(C)C)C(=O)NCc3ccc(C)cc3)ccc21 (stereo unspecified) | inactive: 97% |
| CCCNC(=O)N1CCC(c2ccc3c(c2)OCO3)CC1 | inactive: 99% |

| SMILES | survival |
| --- | --- |
| Cc1sc2ncn(CC(=O)N3CCN(c4ccc(F)cc4)CC3)c(=O)c2c1S(=O)(=O)N1CCN(c2ncccn2)CC1 | inactive: 57% |
| Cc1cc2[nH]c(=O)c(=O)[nH]c2cc1S(=O)(=O)Nc1cccc(C(F)(F)F)c1 | inactive: 73% |
| COc1cccc(CNC(=O)CCS(=O)(=O)c2ccc3c(c2)CC(C)N3C(=O)C2CC2)c1 (stereo unspecified) | active: 20% |
| COc1cc(Cl)c(C)cc1NC(=O)c1cc2c(s1)-c1c(C)cccc1OC2 | inactive: 90% |
| O=C(Cn1c(=O)nc(-c2ccccc2)c2cc(Cl)ccc21)NCCc1ccccc1 | inactive: 88% |
| Cc1ccc(OC(=O)CSc2nnc(-c3cccs3)o2)c(C)c1 | inactive: 66% |
| O=C(c1ccc([N+](=O)[O-])cc1)N1c2ncnn2C2(CCCCC2)[C@@H]2CCCC[C@@H]21 | inactive: 90% |
| COc1ccc(Cl)cc1C(=O)NCc1nc(-c2cccc(C)c2)no1 | inactive: 48% |
| CC1=C(C(=O)OC2CCCCCC2)C(c2ccc(Cl)cc2)CC(=O)N1 (stereo unspecified) | inactive: 86% |
| Cc1cc(C)c(NC(=O)Cc2ccc(-n3c(C)nc4cccnc43)cc2)c(C)c1 | inactive: 80% |
| Cn1nnc2cc(NC(=O)NC3CCCCC3)ccc21 | inactive: 90% |
| COc1ccc(CNC(=O)CS(=O)(=O)c2cccc3nsnc23)cc1 | inactive: 123% |
| COc1ccc(N2CC(C(=O)N/N=C/c3ccccc3)CC2=O)cc1 (stereo unspecified) | inactive: 108% |
| COc1cccc2[nH]c(C(=O)NCc3ccc4c(c3)CCN4C(=O)c3ccc(F)cc3)cc12 | inactive: 84% |
| CCc1c(C)nc2nc(-c3ccccc3)nn2c1NCc1ccc(C)cc1 | active: -4% |
| COc1ccc(CNC(=O)c2ccc(-c3nc(CS(=O)c4ccc(C)cc4)c(C)o3)cc2)cc1 (stereo unspecified) | inactive: 94% |
| CC(C)OCCCn1c(=O)c2ccccc2n2c(-c3ccccc3F)nnc12 | inactive: 90% |
| Cc1oc2ccc(O)c(CN3CCCC(C)C3)c2c1C(=O)Nc1ccccc1 (stereo unspecified) | inactive: 85% |
| COc1ccc2c(c1)c(=O)c(C(=O)c1ccc(Cl)cc1)cn2CC(=O)Nc1ccc2c(c1)OCCO2 | inactive: 96% |

| SMILES | survival |
| --- | --- |
| O=C(CSc1cn(CCNC(=O)c2c(F)cccc2F)c2ccccc12)Nc1ccccc1F | inactive: 55% |
| NC(=O)/C=C/C(=O)Nc1ccc2c(c1)OCO2 | active: 33% |
| N=c1oc2ccccc2cc1C(=O)Nc1ccccc1 | inactive: 91% |
| Cc1ccc2nc(-c3ccco3)c(Nc3ccc4c(c3)OCCO4)n2c1 | inactive: 67% |
| CC(=O)Nc1ccc(NC(=O)C2Cc3ccccc3N2C(=O)c2ccccc2)cc1 (stereo unspecified) | inactive: 77% |
| COc1ccc(Cn2c(CCC(=O)Nc3ccccc3OC)nc3cccnc32)cc1 | inactive: 131% |
| COc1ccccc1CNC(=O)c1ccc(CSc2nc3ccncc3n2Cc2cccc(F)c2)cc1 | inactive: 72% |
| Cc1ccc(OCC(=O)Nc2nc(-c3ccc(Br)cc3)ns2)cc1 | inactive: 72% |
| CCCn1ccc2c(OCC(=O)Nc3ccc(OC)c(OC)c3)cccc2c1=O | inactive: 95% |
| CCCn1c(SCC(=O)c2ccc3c(c2)OCCO3)nnc1-c1ccco1 | inactive: 88% |
| O=C(CC(c1cccs1)N1Cc2ccccc2C1=O)Nc1cccc(F)c1 (stereo unspecified) | inactive: 95% |
| Cc1ccc2nc(-c3c[nH]c4ccccc34)c(Nc3ccc(F)cc3)n2c1 | inactive: 67% |
| Cc1ccc(CNC(=O)C(C)n2c(=O)cc(-c3ccccc3)c3c(C)nn(C)c32)cc1 (stereo unspecified) | inactive: 80% |
| O=C(CCS(=O)(=O)c1cccc2nonc12)Nc1ccc(F)cc1F | inactive: 124% |
| Cc1ccc(-c2nnn3c2nc(NCc2ccc4c(c2)OCO4)c2ccccc23)cc1 | inactive: 81% |
| COc1ccccc1N1CCN(C(=O)c2ccc3c(c2)CCN3S(=O)(=O)c2ccccc2)CC1 | inactive: 62% |
| Cc1oc(-c2ccccc2Cl)nc1CSc1nncn2c1cc1occc12 | inactive: 60% |
| COc1ccc(Br)cc1CNC(=O)Cn1ncn2nc(-c3cccs3)cc2c1=O | inactive: 63% |

Reference: PubChem BioAssay AID463173 (ICCB-Longwood Screening Facility, Harvard Medical School, 2010)
